# Data from PubChem BioAssay (NCATS).
# Inconclusive results, whose numbers are uncertain, are shown with a selection of clear calls. No potency is given beside an inconclusive call; the fits are too rough. The source made the active and inactive calls. The call rests on the fitted dose curve; in most records, active means well fitted curve in the direction sought with a large enough effect; inconclusive means small, poorly fitted or top-dose-only effect, or another doubt; inactive means no such curve, though single readings can be large; an effect the other way counts as inactive or inconclusive.
# Tested on: Nanoluciferase (engineered Oplophorus gracilirostris luciferase)
# Experiment: Primary Nanoluciferase (NLuc) qHTS assay for identification of artifact compounds. (AID 1845222)
# Details: NLuc-conditioned medium, Nano-Glo luminescence, 5 min
# Method in brief: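 Luminescence read-out of secreted NLuc in S16 cell conditioned medium (1:55); compounds tested with 15 min RT preincubation, then Nano-Glo substrate 1:100, 5 min. % inhibition vs no-enzyme and DMSO controls, 4-parameter Hill fit.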
# Potency means the concentration at half of the fitted maximal effect; tags describe the fitted curve by direction and shape.
row,Structure (SMILES),Potency
1,C[C@@H]1COC(Nc2ccc3ncnc(Nc4ccc(OCc5nccs5)c(Cl)c4)c3c2)=N1,"inconclusive [inhibitor, single point]"
2,CCOc1nc2cccc(C(=O)O)c2n1Cc1ccc(-c2ccccc2-c2nn[nH]n2)cc1,"inconclusive [inhibitor, partial curve]"
3,O=C1NC(=O)C(c2cnc3ccccn23)=C1c1cn2c3c(cccc13)CN(C(=O)N1CCOCC1)CC2,"inconclusive [inhibitor, partial curve]"
4,CCOC(=O)C1=C(C)NC2=C(C(=O)CC(C)(C)C2)C1c1ccc(-c2ccccc2)cc1 (stereo not drawn),"inconclusive [inhibitor, partial curve]"

# Tested on: not listed separately
# Experiment: Quantitative High-Throughput drug screen in 47 multiple myeloma cell lines against the NCATS MIPE library collection: FR4_PLB cell viability assay (AID 1918924; further: nearly all actives have a fitted effect of over 35% in size)
# Details: FR4_PLB myeloma cells viability, CellTiter-Glo ATP, 48 h; series mostly up to 45.8 µM; viability (% of DMSO control): at the top concentration
# Method in brief: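 CellTiter-Glo luminescence (ATP) after 48 h compound exposure, 37C/5% CO2; 500 cells/well; MIPE 4.0 approved/investigational drugs pinned in; DMSO = 100%, media only = 0% viability.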
Structure (SMILES),Potency,viability (% of DMSO control)
C[C@H](NC(=O)C(C#N)=Cc1cccc(Br)n1)c1ccccc1,active: 3.72 µM,
c1ccc(CNc2nc(NCc3ccccc3)c3ccccc3n2)cc1,active: 23.5 µM,
NC(N)=NC(N)=NCCc1ccccc1,"inconclusive [cytotoxic, partial curve, poor fit]",
Cc1ccc(NC(=O)Nc2cc(C(F)(F)F)ccc2F)cc1Nc1ccc2c(c1)NC(=O)C2=Cc1ccc[nH]1,"inconclusive [cytotoxic, single point]",
CNC(=O)c1ccc(N2C(=S)N(c3cnc(C#N)c(C(F)(F)F)c3)C(=O)C23CCC3)cc1F,active: 14.8 µM,
C=Cc1c(C)c2cc3nc(cc4[nH]c(cc5nc(cc1[nH]2)C(C)=C5CCC(=O)O)c(CCC(=O)OC)c4C)[C@@]1(C)C3=CC=C(C(=O)OC)[C@H]1C(=O)OC,active: 0.662 µM,
Cc1cc(Cl)ccc1OCCCC(=O)NO,"inconclusive [cytotoxic, full curve]",
CC1=C(CC(=O)O)c2cc(F)ccc2C1=Cc1ccc(S(C)=O)cc1 (stereo not drawn),"inconclusive [cytotoxic, partial curve, poor fit]",
Cc1nc(NC(=O)N2CCC[C@@H]2C(N)=O)sc1-c1csc(C(C)(C)C)n1,"inconclusive [cytotoxic, single point]",
N=C(N)c1ccc(OCCCCCOc2ccc(C(=N)N)cc2)cc1,active: 18.7 µM,
Cc1cnc(Nc2ccc(F)cc2Cl)nc1-c1c[nH]c(C(=O)N[C@H](CO)c2cccc(Cl)c2)c1,active: 29.6 µM,
CNNCc1ccc(C(=O)NC(C)C)cc1,"inconclusive [cytotoxic, single point]",
CC[C@H]1CN2CCc3cc(OC)c(OC)cc3[C@H]2C[C@@H]1C[C@@H]1NCCc2cc(OC)c(OC)cc21,active: 0.372 µM,
CCc1cnn2c(NCc3ccc[n+]([O-])c3)cc(N3CCCC[C@@H]3CCO)nc12,active: 0.0187 µM,
CCOC(=O)C1=C[C@@H](OC(CC)CC)[C@H](NC(C)=O)[C@@H](N)C1,,inactive: 107%
Cc1c(-c2cccc3c(CCCOc4cccc5ccccc45)c(C(=O)O)n(Cc4cccnc4)c23)c(COc2ccc(N3CCN([S+](=O)([O-])N(C)C)CC3)cc2)nn1C,"inconclusive [cytotoxic, single point]",
CC1C(=O)OC2C(O)C34C5CC(C(C)(C)C)C36C(OC(=O)C6O)OC4(C(=O)O5)C12O (stereo not drawn),"inconclusive [cytotoxic, full curve, poor fit]",
Cc1ccc(C(N)=O)cc1Nc1nccc(-c2cn(C(C)C)c3cnccc23)n1,active: 9.35 µM,
CC[C@@H]1C(=O)N(C)c2cnc(Nc3ccc(C(=O)NC4CCN(C)CC4)cc3OC)nc2N1C1CCCC1,active: 0.0235 µM,
CCN1CCN(CC(=O)Nc2ccc(-c3cccc4c(=O)cc(N5CCOCC5)oc34)c3sc4ccccc4c23)CC1,active: 1.48 µM,
COc1cccc(OC)c1-c1cc(C(=O)NC2(C(=O)O)C3CC4CC(C3)CC2C4)nn1-c1ccnc2cc(Cl)ccc12 (stereo not drawn),,inactive: 101%
O[C@@H](CNC[C@H](O)[C@H]1CCc2cc(F)ccc2O1)[C@@H]1CCc2cc(F)ccc2O1,"inconclusive [cytotoxic, single point]",
Cc1nc2cnc3ccc(C#Cc4cccnc4)cc3c2n1-c1ccc(C(C)(C)C#N)cc1,active: 0.118 µM,
COc1cc2nc(-c3cc(F)ccc3O)nc(N[C@@H]3CNC[C@@H]3C(C)(C)O)c2cc1OC,"inconclusive [cytotoxic, partial curve, poor fit]",
